This is an account of results in patent US20230331822A1 (published 2023).

The target of experiment [1] is T1, HCoV-229E Spike protein, full length, C-terminally fused with EGFP (HCoV-229E, UniProt P15423 16-1173).
T1 construct: whole, on cells
T1 sequence: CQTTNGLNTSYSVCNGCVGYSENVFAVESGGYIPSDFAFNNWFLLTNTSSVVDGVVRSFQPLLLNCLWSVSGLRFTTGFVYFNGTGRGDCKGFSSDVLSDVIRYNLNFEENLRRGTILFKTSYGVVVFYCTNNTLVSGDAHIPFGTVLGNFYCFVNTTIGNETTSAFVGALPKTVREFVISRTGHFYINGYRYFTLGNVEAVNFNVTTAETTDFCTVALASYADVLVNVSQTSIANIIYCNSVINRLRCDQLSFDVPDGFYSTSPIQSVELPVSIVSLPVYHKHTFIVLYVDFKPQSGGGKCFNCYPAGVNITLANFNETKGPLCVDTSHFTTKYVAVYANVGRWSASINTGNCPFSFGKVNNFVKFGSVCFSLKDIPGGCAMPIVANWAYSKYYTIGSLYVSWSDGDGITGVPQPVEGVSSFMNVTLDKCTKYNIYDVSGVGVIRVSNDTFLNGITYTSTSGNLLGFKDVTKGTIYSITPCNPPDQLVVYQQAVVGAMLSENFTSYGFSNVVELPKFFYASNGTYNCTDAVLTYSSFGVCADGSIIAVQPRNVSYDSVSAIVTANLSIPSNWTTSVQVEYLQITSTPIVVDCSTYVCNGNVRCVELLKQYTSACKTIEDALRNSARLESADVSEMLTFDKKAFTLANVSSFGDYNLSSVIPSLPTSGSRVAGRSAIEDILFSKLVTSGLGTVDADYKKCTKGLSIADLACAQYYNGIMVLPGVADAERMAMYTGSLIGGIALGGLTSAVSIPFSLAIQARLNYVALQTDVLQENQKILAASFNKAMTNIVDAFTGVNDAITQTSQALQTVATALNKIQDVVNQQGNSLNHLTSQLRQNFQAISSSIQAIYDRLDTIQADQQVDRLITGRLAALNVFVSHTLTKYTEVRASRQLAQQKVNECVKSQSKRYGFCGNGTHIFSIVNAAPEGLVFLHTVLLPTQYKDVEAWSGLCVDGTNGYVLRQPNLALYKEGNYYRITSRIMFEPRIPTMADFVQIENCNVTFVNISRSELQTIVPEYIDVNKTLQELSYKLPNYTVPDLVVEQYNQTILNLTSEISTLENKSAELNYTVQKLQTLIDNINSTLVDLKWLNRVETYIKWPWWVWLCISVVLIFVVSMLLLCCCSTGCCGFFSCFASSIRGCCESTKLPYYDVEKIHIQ
The experiment in a line: flow cytometry, HEK293 cells expressing full-length Spike-EGFP, anti-hIg-PE.

Experiment [2] concerns the target T2, HCoV-OC43 Spike protein, full length, C-terminally fused with EGFP (HCoV-OC43, UniProt P36334 14-1353).
T2 construct: whole, on cells
T2 sequence: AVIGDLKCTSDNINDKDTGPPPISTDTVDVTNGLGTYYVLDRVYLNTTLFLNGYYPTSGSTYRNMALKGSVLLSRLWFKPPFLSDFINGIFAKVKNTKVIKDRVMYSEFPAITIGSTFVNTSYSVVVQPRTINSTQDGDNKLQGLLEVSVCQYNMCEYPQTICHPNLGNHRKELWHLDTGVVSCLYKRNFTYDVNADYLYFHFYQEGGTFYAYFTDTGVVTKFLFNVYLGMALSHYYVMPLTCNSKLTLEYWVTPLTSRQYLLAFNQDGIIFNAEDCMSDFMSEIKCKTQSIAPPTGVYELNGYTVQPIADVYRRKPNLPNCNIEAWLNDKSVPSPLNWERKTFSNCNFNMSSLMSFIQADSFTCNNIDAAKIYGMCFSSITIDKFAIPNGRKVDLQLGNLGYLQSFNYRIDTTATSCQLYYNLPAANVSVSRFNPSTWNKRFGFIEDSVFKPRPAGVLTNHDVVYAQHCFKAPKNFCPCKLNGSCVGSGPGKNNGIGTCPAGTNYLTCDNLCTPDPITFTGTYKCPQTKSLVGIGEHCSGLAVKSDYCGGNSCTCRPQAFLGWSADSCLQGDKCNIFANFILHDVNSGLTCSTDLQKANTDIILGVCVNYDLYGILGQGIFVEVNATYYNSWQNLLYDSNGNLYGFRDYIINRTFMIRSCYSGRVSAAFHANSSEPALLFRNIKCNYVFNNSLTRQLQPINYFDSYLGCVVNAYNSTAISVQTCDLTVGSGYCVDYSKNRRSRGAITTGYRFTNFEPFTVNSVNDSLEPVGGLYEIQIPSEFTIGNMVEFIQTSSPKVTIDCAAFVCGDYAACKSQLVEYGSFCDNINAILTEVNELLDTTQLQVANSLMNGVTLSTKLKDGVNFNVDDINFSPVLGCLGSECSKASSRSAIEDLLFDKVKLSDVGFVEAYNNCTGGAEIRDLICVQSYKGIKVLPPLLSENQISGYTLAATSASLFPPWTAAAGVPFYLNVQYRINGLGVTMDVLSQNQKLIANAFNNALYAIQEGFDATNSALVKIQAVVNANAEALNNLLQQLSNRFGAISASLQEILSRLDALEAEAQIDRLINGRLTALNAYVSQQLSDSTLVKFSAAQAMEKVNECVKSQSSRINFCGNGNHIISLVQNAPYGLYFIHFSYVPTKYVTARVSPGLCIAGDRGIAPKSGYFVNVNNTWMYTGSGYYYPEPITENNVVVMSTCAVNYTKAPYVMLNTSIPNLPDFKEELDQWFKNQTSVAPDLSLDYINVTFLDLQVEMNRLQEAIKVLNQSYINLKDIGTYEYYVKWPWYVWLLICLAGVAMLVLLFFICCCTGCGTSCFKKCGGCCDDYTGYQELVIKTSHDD
Described as above.

B1: COV2-151-23-Fc (Fc fusion)
chain: QLQLVESGGDLVQPGESLRLSCVASASGRTSSTIGWFRQAPGKEREGVSCITWSGGSTSYADSVRGRFTISRENAKNAVYLEMNSLKPEDTAVYYCAAGLSPLMLTASRRYEYWGQGTQVTVSS[human IgG1 Fc with changes not listed]
Turning to B1, the binding result in experiment [1] and in experiment [2] was “no binding” throughout.

B2: COV2-116-9-Fc (Fc fusion)
chain: QLQLVESGGDLVQPGESLRLSCVASGFTLDYYAIGWFRQAPGKEREGVSCISSSGTSTSYADSVRGRFTISRENAKNAVYLEMNSLKPEDTAVYYCAALQGSYYYTSLHQTEYDYWGQGTQVTVSS[human IgG1 Fc with changes not listed]
As to B2, the binding result in experiment [1] and in experiment [2] was “no binding” throughout.

B3: COV2-187-2-Fc (Fc fusion)
chain: QLQLVESGGDLVQPGESLRLSCVASGLSLEHYAIGWFRQAPGKEREGVSCIDSSGGSTSYADSVRGRFTISRENAKNAVYLEMNSLKPEDTAVYYCAALQGSYYYTSLHQTEYDYWGQGTQVTVSS[human IgG1 Fc with changes not listed]
For B3, the binding result in experiment [1] and in experiment [2] was “no binding” each time.

B4: COV2-171-11-Fc (Fc fusion)
chain: QLQLVESGGDLVQPGESLRLSCVASGFTLDYYAIGWFRQAPGKEREGVSCISPSGTSTSYADSVRGRFTISRENAKNAVYLEMNSLKPEDTAVYYCAAANPSYYYCSGYPHEYDDWGQGTQVTVSS[human IgG1 Fc with changes not listed]
For the molecule B4, the binding result in experiment [1] and in experiment [2] was “no binding” each time.

B5: COV2-18-21-Fc (Fc fusion)
chain: QLQLVESGGDLVQPGESLRLSCVASGRTFSTYAIGWFRQAPGKEREGVSCISPSRIITSYADSVRGRFTISRENAKNAVYLEMNSLKPEDTAVYYCAADSSYGGRLGRRIDDYEYWGQGTQVTVSS[human IgG1 Fc with changes not listed]
In the case of B5, the binding result in experiment [1] and in experiment [2] was “no binding” each time.

B6: COV2-32-26-Fc (Fc fusion)
chain: QLQLVESGGDLVQPGESLRLSCVASGRTFGTYRIGWFRQAPGKEREGVSCIFWSGGGASYADSVRGRFTISRENAKNAVYLEMNSLKPEDTAVYYCAARAPTTQEYDYWGQGTQVTVSS[human IgG1 Fc with changes not listed]
As to B6, the binding result in experiment [1] and in experiment [2] was “no binding” each time.

B7: COV2-124-20-Fc (Fc fusion)
chain: QLQLVESGGDLVQPGESLRLSCVASGRTFSSYAIGWFRQAPGKEREGVSCISSGGITSYADSVRGRFTISRENAKNAVYLEMNSLKPEDTAVYYCAANRGRFTGWRSLTDYTYWGQGTQVTVSS[human IgG1 Fc with changes not listed]
For B7, the binding result in experiment [1] and in experiment [2] was “no binding” throughout.

B8: COV2-39-19-Fc (Fc fusion)
chain: QLQLVESGGDLVQPGESLRLSCVASGRTFTRYPIGWFRQAPGKEREGVSCISGSGIITSYADSVRGRFTISRENAKNAVYLEMNSLKPEDTAVYYCAVDNAPTSSLPLTPGEYDYWGQGTQVTVSS[human IgG1 Fc with changes not listed]
Take B8: the binding result in experiment [1] and in experiment [2] was “no binding” throughout.

B9: COV2-360-3-Fc (Fc fusion)
chain: QLQLVESGGDLVQPGESLRLSCVASGFTLDSYAIGWFRQAPGKEREGVSCITKHGGTTSYADSVRGRFTISRENAKNAVYLEMNSLKPEDTAVYYCAADHRALRFGCAVVPGPYDYWGQGTQVTVSS[human IgG1 Fc with changes not listed]
Turning to B9, the binding result in experiment [1] and in experiment [2] was “no binding” each time.

B10: COV2-120-17-Fc (Fc fusion)
chain: QLQLVESGGDLVQPGESLRLSCVASGHTGSTYIIGWFRQAPGKEREGVSCISRSGILRSYADSVRGRFTISRENAKNAVYLEMNSLKPEDTAVYYCAARDSLTGVIGNTPGEYDYWGQGTQVTVSS[human IgG1 Fc with changes not listed]
Turning to B10, the binding result in experiment [1] and in experiment [2] was “no binding” in each case.

B11: COV2-214-24-Fc (Fc fusion)
chain: QLQLVESGGDLVQPGESLRLSCVASGRTVSMYAIGWFRQAPGKEREGVSCISRSGRSTSYADSVRGRFTISRENAKNAVYLEMNSLKPEDTAVYYCAARDGGLHYALYVEASHYNYWGQGTQVTVSS[human IgG1 Fc with changes not listed]
Take B11: the binding result in experiment [1] and in experiment [2] was “no binding” in each case.

B12: COV2-114-1-Fc (Fc fusion)
chain: QLQLVESGGDLVQPGESLRLSCVASGLSLEHYAIGWFRQAPGKEREGVSCISDSGATRSYADSVRGRFTISRENAKNAVYLEMNSLKPEDTAVYYCSATPGAFRTCAFRDFSHLANWGQGTQVTVSS[human IgG1 Fc with changes not listed]
With B12, the binding result in experiment [1] and in experiment [2] was “no binding” in each case.

B13: COV2-153-18-Fc (Fc fusion)
chain: QLQLVESGGDLVQPGESLRLSCVASGRTVSSYVIGWFRQAPGKEREGVSCISRSGIITSYADSVRGRFTISRENAKNAVYLEMNSLKPEDTAVYYCAAAQTQVLPTEDRSYDYWGQGTQVTVSS[human IgG1 Fc with changes not listed]
B13: the binding result in experiment [1] and in experiment [2] was “no binding” throughout.

B14: COV2-331-25-Fc (Fc fusion)
chain: QLQLVESGGDLVQPGESLRLSCVASGFTFSSYAIGWFRQAPGKEREGVSCLDVTGRSTSYADSVRGRFTISRENAKNAVYLEMNSLKPEDTAVYYCAAVYTPFRFAFKTDPDRQDHWGQGTQVTVSS[human IgG1 Fc with changes not listed]
On to B14, for which the binding result in experiment [1] and in experiment [2] was “no binding” each time.
